From the antibiotic and cytotoxicity screens of Wong et al. (2023)
Some of the results follow.

Tests used:
[1] = tested on: HSkMC (human skeletal muscle cells); experiment: cytotoxicity call (relative viability < 0.9); details: 10 µM
[2] = tested on: HepG2; experiment: cytotoxicity call (relative viability < 0.9); details: 10 µM
[3] = tested on: S. aureus RN4220; experiment: growth inhibition call (relative growth <= 0.2); details: 50 µM

Structure (SMILES)	cytotoxicity call [1]	cytotoxicity call [2]	growth inhibition call [3]
CS(=O)(=O)Nc1ccccc1O	inactive	inactive	inactive
CN1c2ccccc2[C@@H](NCCCCCCC(=O)Nc2ccccc2N)c2ccc(Cl)cc2S1(=O)=O	inactive	inactive	inactive
C[C@H]1CN([C@@H](C)CO)C(=O)CCCn2cc(nn2)CO[C@H]1CN(C)C(=O)Nc1ccc2c(c1)OCCO2	inactive	inactive	inactive
C[C@H](NC(=O)C[C@@H]1C[C@H]2c3cc(NC(=O)Nc4ccc(C(F)(F)F)cc4)ccc3O[C@H]2[C@@H](CO)O1)c1ccccc1	inactive	inactive	inactive
COCCN1C(=O)C[C@@H]2[C@@H]1CCN2C(=O)c1csnn1	inactive	inactive	inactive
CC(C)NC(=O)N(C)C[C@@H]1Oc2ccc(NC(=O)CCCN(C)C)cc2CC(=O)N([C@H](C)CO)C[C@@H]1C	inactive	inactive	inactive
CCCN(C)C[C@H]1OCCCC[C@@H](C)Oc2ccc(NC(=O)C3CCCCC3)cc2C(=O)N([C@H](C)CO)C[C@H]1C	inactive	inactive	inactive
C[C@@H]1CN([C@H](C)CO)S(=O)(=O)c2ccc(-c3cncnc3)cc2O[C@@H]1CN(C)C(=O)Cc1ccccc1	inactive	inactive	inactive
C[C@@H]1CN([C@H](C)CO)C(=O)Cc2cc(NC(=O)CCCCCC(=O)Nc3ccccc3N)ccc2O[C@H]1CN(C)C(=O)Nc1ccccc1	inactive	inactive	inactive
C[C@H]1CN([C@@H](C)CO)S(=O)(=O)c2ccc(C#CCN(C)C)cc2O[C@@H]1CN(C)C(=O)c1ccccc1F	inactive	inactive	inactive
CNC[C@H]1COCCO1	inactive	inactive	inactive
COc1ccc(CN(C)C[C@@H]2OCCCC[C@@H](C)Oc3ccc(NC(=O)Nc4ccc(F)cc4)cc3C(=O)N([C@H](C)CO)C[C@H]2C)cc1	inactive	active	inactive
O=C1OCCN(c2ccccc2)C1=O	inactive	inactive	inactive
CC(C)(C)[S@@](=O)N1Cc2cc(C(=O)NCCc3ccncc3)nc(-c3cccc(-c4ccccc4)c3)c2[C@H]1CCO	active	inactive	inactive
C[C@@H](NC(=O)C[C@@H]1CC[C@H](NC(=O)CN2CCOCC2)[C@H](CO)O1)c1ccccc1	inactive	inactive	inactive
Cc1ccc(S(=O)(=O)Nc2ccc3c(c2)C(=O)N([C@@H](C)CO)C[C@H](C)[C@@H](CN(C)CC2CCCCC2)OCCCC[C@H](C)O3)cc1	inactive	inactive	inactive
C[C@@H]1CN([C@@H](C)CO)C(=O)c2cccc(NS(=O)(=O)c3cccs3)c2O[C@H]1CN(C)S(=O)(=O)c1cn(C)cn1	inactive	inactive	inactive
CO[C@H]1CN(C)C(=O)c2cc(NS(=O)(=O)c3cn(C)cn3)ccc2OC[C@H](C)N(CCC(F)(F)F)C[C@H]1C	inactive	inactive	inactive
COCC(=O)N(C)C[C@@H]1Oc2cc(C#CC(C)(C)O)ccc2S(=O)(=O)N([C@@H](C)CO)C[C@H]1C	inactive	inactive	inactive
C[C@H](CO)N1C[C@H](C)[C@H](CN(C)Cc2ccncc2)Oc2ccc(NC(=O)Nc3ccc(C(F)(F)F)cc3)cc2C1=O	inactive	inactive	inactive
C[C@H](CO)N1C[C@H](C)[C@@H](CN(C)C(=O)Cc2ccccc2)OCCCC[C@H](C)Oc2ccc(NS(=O)(=O)c3cccs3)cc2C1=O	inactive	inactive	inactive
CC(C)CC#Cc1ccc2c(c1)O[C@H](CN(C)S(=O)(=O)c1cccc(F)c1)[C@@H](C)CN([C@@H](C)CO)S2(=O)=O	inactive	inactive	inactive
Cc1ccc(S(=O)(=O)Nc2ccc3c(c2)C(=O)N([C@H](C)CO)C[C@@H](C)[C@H](CN(C)Cc2ccc(Cl)c(Cl)c2)OCCCC[C@H](C)O3)cc1	inactive	active	inactive
C[C@H](CO)N1C[C@H](C)[C@@H](CN(C)S(=O)(=O)c2cccc(C#N)c2)OCc2cnnn2CCCC1=O	inactive	inactive	inactive
CO[C@H]1CN(C)C(=O)c2cc(NC(=O)Nc3cccc(F)c3)ccc2OC[C@@H](C)N(C(=O)Nc2c(C)noc2C)C[C@H]1C	inactive	inactive	inactive
CC(C)CC#Cc1ccc2c(c1)O[C@H](CN(C)C(=O)C1CCOCC1)[C@H](C)CN([C@H](C)CO)S2(=O)=O	inactive	inactive	inactive
O=C([C@@H]1[C@@H](CO)[C@@H]2Cn3c(cccc3=O)[C@H]1N2S(=O)(=O)c1ccccc1F)N1CCOCC1	inactive	inactive	inactive
c1ccc2c(c1)[nH]c1ncccc12	inactive	inactive	inactive

Structure (SMILES)	cytotoxicity call [1]	cytotoxicity call [2]	growth inhibition call [3]
COc1cccc(C#Cc2ccc3c(c2)O[C@@H](CN(C)S(=O)(=O)c2ccccc2F)[C@@H](C)CN([C@@H](C)CO)S3(=O)=O)c1	inactive	inactive	inactive
CC1(C)OC(=O)C2(C(=O)O1)[C@@H](c1ccc(-c3cccc(-c4ccc(C(=O)O)cc4)c3)cc1)CC(=O)C[C@H]2c1ccccc1	inactive	inactive	inactive
COc1ccc(S(=O)(=O)N(C)C[C@H]2Oc3c(NS(=O)(=O)c4cccs4)cccc3C(=O)N([C@@H](C)CO)C[C@H]2C)cc1	inactive	inactive	inactive
C/C=C/c1ccc2c(c1)O[C@@H](CN(C)C(=O)c1ccc3c(c1)OCO3)[C@H](C)CN([C@H](C)CO)S2(=O)=O	inactive	inactive	inactive
CN(C)CCCNC(=O)C[C@H]1CC[C@H]2[C@@H](COC[C@@H](O)CN2C(=O)Nc2cc(Cl)cc(Cl)c2)O1	inactive	inactive	inactive
CN(C)c1ccc(O)c2c1C[C@@H]1C[C@@H]3[C@@H](N(C)C)C(=O)C(C(N)=O)=C(O)[C@]3(O)C(=O)[C@H]1C2=O	inactive	inactive	inactive
C[C@H]1CCCCO[C@H](CN(C)CC2CC2)[C@@H](C)CN([C@@H](C)CO)C(=O)c2cc(NC(=O)c3ccccc3)ccc2O1	inactive	inactive	inactive
C[C@H](CO)N1C[C@H](C)[C@@H](CN(C)Cc2ccc(Oc3ccccc3)cc2)Oc2c(NC(=O)Nc3ccc(C(F)(F)F)cc3)cccc2C1=O	active	inactive	inactive
COc1ccc(S(=O)(=O)N(C)C[C@@H]2OCCCC[C@@H](C)Oc3ccc(NS(=O)(=O)c4ccc(Cl)cc4)cc3C(=O)N([C@@H](C)CO)C[C@@H]2C)cc1	inactive	inactive	inactive
C[C@@H]1CN([C@@H](C)CO)C(=O)c2cccc(NS(C)(=O)=O)c2O[C@H]1CN(C)S(=O)(=O)c1cn(C)cn1	inactive	inactive	inactive
C[C@@H]1CN([C@@H](C)CO)C(=O)Cc2cc(NS(=O)(=O)c3ccc(Cl)cc3)ccc2O[C@@H]1CN(C)C(=O)Nc1cccc2ccccc12	inactive	inactive	inactive
COc1ccc(S(=O)(=O)Nc2ccc3c(c2)C(=O)N([C@H](C)CO)C[C@@H](C)[C@@H](CN(C)Cc2ccc(Cl)c(Cl)c2)OCCCC[C@H](C)O3)cc1	active	inactive	inactive
Cc1cccc(S(=O)(=O)N2C[C@@H](O)COC[C@@H]3O[C@H](CC(=O)NCCCN4CCOCC4)CC[C@H]32)c1	inactive	inactive	inactive
C[C@@H]1CN([C@H](C)CO)C(=O)c2cc(NC(=O)c3ccccc3)ccc2O[C@@H](C)CCCCO[C@H]1CN(C)C(=O)Nc1ccccc1	inactive	inactive	inactive
C[C@@H]1CCCCO[C@H](CN(C)C(=O)Nc2ccc(F)cc2)[C@H](C)CN([C@H](C)CO)C(=O)c2cc(NC(=O)Nc3ccc(C(F)(F)F)cc3)ccc2O1	inactive	inactive	inactive
C[C@@H]1CCCCO[C@H](CN(C)Cc2ccc(Cl)c(Cl)c2)[C@@H](C)CN([C@@H](C)CO)C(=O)c2cc(NC(=O)C3CCCCC3)ccc2O1	active	active	inactive
C[C@@H]1CN([C@@H](C)CO)C(=O)c2cccc(NC(=O)c3ccncc3)c2O[C@H]1CN(C)C(=O)Nc1ccc2c(c1)OCO2	inactive	inactive	inactive
COCC#Cc1ccc2c(c1)O[C@H](CN(C)Cc1ccccc1F)[C@@H](C)CN([C@@H](C)CO)S2(=O)=O	inactive	inactive	inactive
O=C(O)c1cc(=O)c2ccccc2o1	inactive	inactive	inactive
CO[C@@H]1CN(C)C(=O)c2ccc(NC(=O)C3CCC3)cc2OC[C@@H](C)N(C(=O)Nc2ccc(C(F)(F)F)cc2)C[C@H]1C	inactive	inactive	inactive
CO[C@H]1/C=C\C=C(/C)C(=O)NC2=CC(=O)C(NCCN(C)C)=C(C[C@@H](C)C[C@H](OC)[C@H](O)[C@@H](C)/C=C(\C)[C@@H]1OC(N)=O)C2=O	active	active	inactive
COc1ccc2c3c(n(c2c1)C)[C@H](CO)N(C[C@]13CN(C1)C(=O)C1CCOCC1)C(=O)C1CCOCC1	inactive	inactive	inactive
C[C@@H](O)[C@@H](O)[C@@H](O)C/C=N/NC(=O)c1ccc(C(=O)NO)cc1	inactive	inactive	inactive
COC(=O)c1c(CC[C@@H](CO)NC(=O)N[C@@H](Cc2ccccc2)Cn2cc(-c3ccccc3)nn2)oc(C(=O)N2CCOCC2)c1C(=O)OC	inactive	inactive	inactive
CS(=O)(=O)c1nnc(N)s1	inactive	inactive	inactive
O=C1c2ccccc2[C@@]2(Cc3ccccc3N(CC(F)(F)F)C2=O)[C@H](c2ccc(CO)cc2)N1Cc1ccccc1	inactive	inactive	inactive
CCCNC(=O)[C@@]1(Sc2ccc(C)cc2)CC(=O)N(Cc2cc(C(F)(F)F)cc(C(F)(F)F)c2)[C@@H]1c1ccc(CO)cc1I	inactive	inactive	inactive
